# This list was built around the results that the source calls inconclusive (neither active nor inactive); the mix of calls is not that of the screen. For part of these data: Where the call is inconclusive, the potency comes from a doubtful curve fit. Activity calls are given as the source filed them. Unless noted, the call rests on the fitted dose curve; in most records, active means well fitted curve in the direction sought with a large enough effect; inconclusive means small, poorly fitted or top-dose-only effect, or another doubt; inactive means no such curve, though single readings can be large; an effect the other way counts as inactive or inconclusive.
# Legend:
# [1] = Primary qHTS for inhibitors of nuclear receptor binding SET domain protein 2 (NSD2) in an isogenic RCH-ACV NSD2 p.E1099K mutant (9B) (AID 1645876); further: nearly all actives have a fitted effect of over 70% in size
# [2] = Primary qHTS for inhibitors of nuclear receptor binding SET domain protein 2 (NSD2) in an RCH-ACV wild type WT cells (2C) (AID 1645877); conditions: activity change, negative = cell killing: at 44.9 µM (top of the series) unless noted; further: nearly all actives have a fitted effect of over 70% in size; on activity change, negative = cell killing: on the % scale 0 is the no-effect control and ±100 the full control effect
# [3] = Primary fluorescence-based thiol-reactive (MSTI) qHTS assay for identification of artifact compounds. (AID 1845221);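 further: potency means the concentration at half of the fitted maximal effect; thiol-reactive compounds lower the probe fluorescence signal; nearly all actives have a fitted effect of over 65% in size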
# Procedure, shortened: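 In PBS pH 7.4 with 2% DMSO, each compound met 4 uM MSTI for one hour at ambient temperature, shielded from light, before fluorescence detection.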
# CRL-7250 = normal cell line; test: Cytotoxic Profiling of Annotated Libraries Using Quantitative High-Throughput Screening (AID 1296008); conditions: Five cell lines viability, CellTiter-Glo ATP luminescence, 48-72 h; max response: active compounds read low; further: nearly all actives have a fitted effect of over 60% in size; further: potency means the concentration at half of the fitted maximal effect; on max response: on the % scale 0 is the no-effect control and ±100 the full control effect
# Procedure, shortened: (§1)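 Cytotoxicity was measured as CellTiter-Glo ATP luminescence, read after 10 min at room temperature. Compound treatment of the cells lasted 48 or 72 hr at 37 degrees Celsius in a qHTS format.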
# NIH3T3 = test: as above; conditions: Five cell lines viability, CellTiter-Glo ATP luminescence, 48-72 h; max response: active compounds read low
# Procedure, shortened: as §1
# PA-1 = test: Primary qHTS to identify gynecologic anti-cancer compounds using libraries of approved drugs and bioactive compounds (AID 1345084); conditions: Gynecologic cancer cell panel viability, ATPlite luminescence, 48 h; series mostly up to 57.5 µM; further: nearly all actives have a fitted effect of over 55% in size; further: potency means the concentration at half of the fitted maximal effect
# Procedure, shortened: (§2)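 Five-concentration response, 48 h; readout is ATP-driven luciferase luminescence.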
# SKOV3 = test: as above; conditions: Gynecologic cancer cell panel viability, ATPlite luminescence, 48 h; series mostly up to 57.5 µM
# Procedure, shortened: as §2
# [4] = tested on: Zika virus NS2B-NS3 protease (unlinked complex); test: Primary screen GU Rhodamine qHTS for Zika virus inhibitors: Unlinked NS2B-NS3 protease assay (AID 1347159); further: potency means the concentration at half of the fitted maximal effect; nearly all actives have a fitted effect of over 60% in size
# Procedure, shortened: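 Noncovalent NS2B hydrophilic domain–NS3 protease domain complex (25 nM) preincubated 15 min at room temperature with compounds (up to 114 microM) in 10 mM Tris-HCl pH 8.0, 0.01% Tween 20; 1.5 microM Rhodamine110 substrate added, fluorescence change over 15 min fitted to Hill equation.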
# [5] = tested on: Zika virus NS2B-NS3 protease (linked construct); test: Primary screen NINDS Rhodamine qHTS for Zika virus inhibitors (AID 1347160); conditions: activity change, negative = inhibition: at 57.1 µM (top of the series) unless noted; further: potency means the concentration at half of the fitted maximal effect; nearly all actives have a fitted effect of over 55% in size
# Procedure, shortened: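 Purified linked NS2B-NS3 protease (NS2B hydrophilic domain joined to NS3 protease by flexible linker), 25 nM in 10 mM Tris-HCl pH 8.0, 0.01% Tween 20. Compounds titrated, 15 min preincubation at room temperature; 1.5 microM Rhodamine110 substrate, FITC fluorescence change over 15 min.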
# [6] = P-glycoprotein substrates identified in KB-8-5-11 adenocarcinoma cell line, qHTS therapeutic library screen (AID 1346987); further: nearly all actives have a fitted effect of over 65% in size; further: potency means the concentration at half of the fitted maximal effect
# Procedure, shortened: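 Steps: plate 500 KB-8-5-11 cells/well in DMEM + 10% FCS (colchicine removed); pin compounds in dose-response; incubate 72 h, 37 degree C, 5% CO2; add CellTiter-Glo, 5 min; read luminescence.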
# [7] = molecular target: Cytochrome P450 2D6 (Homo sapiens) (UniProt P10635); test: Cytochrome P450 family 2 subfamily D member 6 (CYP2D6) small molecule antagonists: luciferase biochemical (cell-free) qHTS assay (AID 1645840; active means well fitted curve in the direction sought with a large enough effect in the repeat runs; inconclusive means weak or mixed curves; inactive means no such curve, though single readings can be large; an effect the other way counts as inactive or inconclusive; further: on the % scale 0 is the no-effect control and ±100 the full control effect; nearly all actives have a fitted effect of over 55% in size)
# Procedure, shortened: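 P450-Glo luminescent screen: recombinant CYP2D6 enzyme–proluciferin substrate mix preincubated with compound 10 min at room temperature, then NADPH regeneration added for 1 h at room temperature. Detection reagent added for 20 min; luciferin light read as relative luminescence units.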
# OV90 = test: Primary qHTS to identify gynecologic anti-cancer compounds using libraries of approved drugs and bioactive compounds (AID 1345084); conditions: Gynecologic cancer cell panel viability, ATPlite luminescence, 48 h; series mostly up to 57.5 µM; further: nearly all actives have a fitted effect of over 55% in size; further: potency means the concentration at half of the fitted maximal effect
# Procedure, shortened: as §2
# Tags describe the fitted curve by direction and shape.
# Sequence of UniProt P10635 (P10635 whole entry, looked up): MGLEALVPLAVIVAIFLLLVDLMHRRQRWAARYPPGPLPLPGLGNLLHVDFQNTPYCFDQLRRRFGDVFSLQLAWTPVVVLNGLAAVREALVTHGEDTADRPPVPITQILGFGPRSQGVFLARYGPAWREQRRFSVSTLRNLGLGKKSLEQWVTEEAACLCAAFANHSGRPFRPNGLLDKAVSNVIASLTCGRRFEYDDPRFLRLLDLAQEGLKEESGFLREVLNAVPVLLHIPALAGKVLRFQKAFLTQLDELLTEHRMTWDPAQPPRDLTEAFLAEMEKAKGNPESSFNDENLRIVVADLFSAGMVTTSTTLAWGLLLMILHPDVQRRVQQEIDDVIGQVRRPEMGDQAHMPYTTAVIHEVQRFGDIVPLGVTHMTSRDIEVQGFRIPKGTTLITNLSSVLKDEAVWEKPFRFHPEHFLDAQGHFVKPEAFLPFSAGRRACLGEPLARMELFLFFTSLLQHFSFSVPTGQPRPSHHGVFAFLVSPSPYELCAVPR
structure (smiles),measurement,setting,value
O=C(O)Cc1cn([C@@H]2OC[C@@H](O[C@@H]3O[C@H](CO)[C@@H](O)[C@H](O)[C@H]3O)[C@H](O)[C@H]2O[C@@H]2O[C@H](CO)[C@@H](O)[C@H](O)[C@H]2O)c2ccccc12,Potency,[1],inactive
same,Potency,[2],inactive
same,Potency,[3],"inconclusive: 7.07 µM [inhibitor, partial curve]"
same,max response,CRL-7250,inactive: -0.703%
same,outcome,NIH3T3,inactive
same,Potency,PA-1,inactive
O=C(O[C@H]1[C@@H]2C=CO[C@@H](O[C@@H]3O[C@H](CO)[C@@H](O)[C@H](O)[C@H]3O)[C@@H]2[C@@]2(CO)O[C@@H]12)c1ccc(O)cc1,max response,CRL-7250,inactive: 1.96%
same,outcome,NIH3T3,inactive
same,Potency,SKOV3,inactive
CC(=O)OC/C=C(\C)C(CC1C(C)=C(OC(C)=O)C(=O)C2C(C)(C)C(O)CCC12C)OC(C)=O (stereo not drawn),Potency,[4],"inconclusive: 31.6 µM [inhibitor, partial curve]"
same,Potency,[5],"inconclusive: 8.91 µM [inhibitor, partial curve]"
same,Potency,[3],"inconclusive: 18.4 µM [inhibitor, single point]"
same,max response,CRL-7250,inactive: 1.57%
same,Potency,NIH3T3,"inconclusive: 12.6 µM [inhibitor, single point]"
same,Potency,SKOV3,inactive
CCCCOc1nc(N)c2c(n1)N(Cc1cccc(CN3CCCC3)c1)CC(=O)N2,Potency,[3],"inconclusive: 2.38 µM [inhibitor, full curve, poor fit]"
same,outcome,CRL-7250,inactive
same,outcome,NIH3T3,inactive
same,Potency,SKOV3,"inconclusive: 3.98 µM [rising, single point]"
COc1c(C)c(C(=O)c2ccc(N)c(C(=O)O)c2)n2ccccc12,Potency,[6],inactive
same,Potency,[4],"inconclusive: 89.1 µM [inhibitor, single point]"
same,Potency,[5],"inconclusive: 8.91 µM [inhibitor, full curve]"
same,Potency,[7],inactive
same,Potency,[1],inactive
same,Potency,CRL-7250,"inconclusive: 23.1 µM [inhibitor, single point]"
same,Potency,NIH3T3,"inconclusive: 29.1 µM [inhibitor, single point]"
same,Potency,OV90,"inconclusive: 28.2 µM [cytotoxic, single point]"
same,Potency,PA-1,inactive
same,Potency,SKOV3,"inconclusive: 0.631 µM [rising, partial curve, poor fit]"
NC1=NC2(c3cc(NC(=O)c4ccc(F)cn4)ccc3F)COCC2CS1 (stereo not drawn),Potency,[6],"inconclusive: 14.6 µM [inhibitor, partial curve, poor fit]"
same,Potency,[2],inactive
same,max response,CRL-7250,inactive: 3.35%
same,max response,NIH3T3,inactive: -8.12%
